Read counts are not given, so values of variants with three or more changes are uncertain.
B1: LINE1-mini (parent)
chain: GGCAGAGCUCAACACAGCGUGGCAAAGUGGCUGUGGCUAGACUGCC

Variants of: B1
Experiment: self-cleavage, relative activity (ratio to wild type); higher = more cleavage; in vitro, sequencing; the parent is a self-cleaving ribozyme

| Variant | self-cleavage |
| --- | --- |
| G7C U20C C45A | 0.04 |
| C10U C15A A26G | 0.06 |
| C3U A11G G33U U34A | 0.03 |
| C18A G33U C45U | 0.02 |
| U9A C10G G29A C31U | 0.03 |
| G5U C13A C46G | 0.02 |
| C15G G17A U28A C46A | 0.02 |
| U9G A11C A39G | 0 |
| G2U A16U G35U C46A | 0.03 |
| C18U G19C U43C | 0.07 |
| A4U C15U G35U | 0.72 |
| A6C G35A C42G | 0.04 |
| G2A C3U C10A A16U A24U A25C A41C | 0.03 |
| C10A A12U A24U | 0.03 |
| G2C U34G C42G | 0.01 |
| C10G C23U G30U | 0.14 |
| C3U A6C A25U C37U | 0.02 |
| C23A A26C C31U | 0.08 |
| G2U A24C U32A C45U C46U | 0.02 |
| G2A C10A G19U C37A A39C | 0.02 |
| C10U A11G G22A G30A G35U | 0.01 |
| C15U C31U U43A | 0.04 |
| G1A G7U G30A | 0.07 |
| G5U A6U C15U U34C | 0.01 |

| Variant | self-cleavage |
| --- | --- |
| C3U G27U G29A G30C C37G | 0.15 |
| A6U A16U A25C A26G G35A | 0.03 |
| G1A G2U G5A G22A | 0.46 |
| G5C C23U C37G | 0.1 |
| A16C G22C C31G G35A | 0.02 |
| A11G A16U A24G G27A U28C | 0.02 |
| G1U A6G C13U A16C A24U A26C | 0.05 |
| A12G A16G G17U C42A | 0.36 |
| C13G A14C U38A | 0 |
| C3A C31G C37U U43C | 0.08 |
| G19U U20A A26C C37A G40A | 0.02 |
| A16C U28C G44C | 0.04 |
| A4C G5A A14U C42A U43G | 0.03 |
| G1A A4C G7C U9G C18U | 0.25 |
| C3U C10A C13A U28G G36A | 0.03 |
| C8U C23U G27U U32C | 0.55 |
| A4G U34C G40A | 0.08 |
| A6U G30U U32G C46A | 0.04 |
| C13G G17U G27U C31G G36A | 0.07 |
| G30A C31A U38C A41U | 0.08 |
| G5A A6U C8U C23U G27C C37U | 0.19 |
| C8G A11C C42U U43C | 0.01 |
| A6U A11G G19A G29U G36U | 0 |
| G19A U34A G36U | 0.04 |

| Variant | self-cleavage |
| --- | --- |
| C8G G19C A26G U32A G33C | 0.01 |
| G2C A11G C18A G19A U32C | 0.01 |
| U9G C15U G19C U28A G36U U38G | 0.01 |
| A24U A25G U34A | 0.04 |
| C10A A14C U28C C42U C45G | 0.01 |
| C3G G17U G19A | 0.04 |
| G33U C42G G44U | 0.04 |
| C8G C15A G40A | 0.09 |
| A6C G22A U38C | 0.07 |
| A16G G17A U38A A39C | 0.01 |
| A4G G7A G36C A39C G44A C46A | 0.11 |
| C3A U20A A25U G36U C42A | 0.01 |
| G19A U38C A41C | 0.03 |
| A25C G27C U38A | 0.14 |
| C10A A24G A41C C45U | 0 |
| G2A A14U G29C G35A | 0.17 |
| G7C C18A U32A C42U | 0.03 |
| C3G A4C G21A U28C | 0.15 |
| C3G A4U G5A C46A | 0.79 |
| C8U A16U G22C G44A | 0.09 |
| C13U G27C G29U | 0.22 |
| G2A U9C C15U G17A A26U | 0.02 |
| C23A G35U C42A | 0.1 |
| U9C A26G G33C | 0.02 |

| Variant | self-cleavage |
| --- | --- |
| A25G G30U G33A G44C | 0 |
| A16C G19C A25U | 1.06 |
| G5C C15A C31U G44A | 0.02 |
| G7A U9A C10U C23U G27U | 0.03 |
| G22U A24U A39U | 0.25 |
| A4G C18G G40A | 0.26 |
| C3A C8U C15G C23G C42A | 0.15 |
| C8A C18G C42A | 0.15 |
| G5C C13A G30C | 0.02 |
| G7C U9G G22A A41U | 0.01 |
| C3U A4C A26G G29U | 0.01 |
| C8U C23U A25U | 0.15 |
| C10G C23A G27U C31G | 0.07 |
| G22A U32C A39G | 0.05 |
| C3G A11G A14C U32G | 0.02 |
| G21C G27U G29A | 1.37 |
| A4G C10A C31U G40U | 0 |
| C8U U20C A26G | 0.02 |
| C10G C23A A25U | 0.16 |
| A12U G17U A26U G36U | 0.05 |
| G7C A11G G21U C23U | 0.03 |
| G1A C13U G29C G33C U34A A39G | 0.05 |
| A12C A14U G19C G22C G27A U34A C37G | 0 |
| G1C A25U U38A G40C | 0.03 |

| Variant | self-cleavage |
| --- | --- |
| G1C G2A C10U G27C | 0.05 |
| G2A A26G C42U | 0.21 |
| C3A A26G U38C C42G | 0.19 |
| U9C C10A G40C | 0.03 |
| C13A G19C A24C A39G G40U C46G | 0.02 |
| A26G G35U U43C | 0.05 |
| G2C C8G U32A G35C G36C | 0.01 |
| C10A G17U A26C C37U | 0 |
| A4G C10A U38A U43C | 0.03 |
| A16C G29U G33A | 0.01 |
| A6U G7C A16U U20A | 0.06 |
| C10A A12C G21U U43A | 0.03 |
| A4C C15A G40A | 0.11 |
| C10U A11C G29A | 0.02 |
| G19U G22U A24C C31G U38C C42A | 0.03 |
| C15A U20G U34G C45A | 0 |
| G17A G36A C42G | 0 |
| A6G C42G C46G | 0.01 |
| G1U G2C C23G | 0.05 |
| A16C G22U A25G U28A G36A G40C | 0.04 |
| G27U U34C C42U | 0.03 |
| G5U C15G A25C G44U | 0.02 |
| G2A U20C A24C | 0.56 |
| G7C G21C G40C | 0.1 |

| Variant | self-cleavage |
| --- | --- |
| G1C G5U A6C C10U A12U G19U G29U | 0 |
| A6C A14C G29U C42G C45A | 0 |
| G1C C3U G17A C23A G27A G29C U34A | 0.05 |
| C13A G17A G35C | 0.01 |
| G2U C23U G27U | 0.01 |
| C3A G7A C13U | 1.31 |
| G1U G5A G21C C23U G29U | 0.04 |
| A11G G22C C46G | 0.01 |
| A4G A25U U32C G40U | 0.05 |
| C3G A12C U32C A39G | 0.02 |
| G19U G21A A26G C37U | 0.04 |
| G17U C23U G29U | 0.37 |
| G5A U9C A12C G29A | 0.02 |
| U9A A11U C15A A25G U32C G33A C37A | 0.02 |
| U9G G35A G44U | 0.04 |
| C23U G30A C45G | 0.09 |
| C13A G17C U20C | 0.01 |
| C15G A41C C45A | 0.01 |
| C3G A24U U32G C37A G40U | 0.31 |
| C8A G29C G40U C45A | 0.14 |
| U9C U32G C37G | 0 |
| G5A C13U G22C | 0.02 |
| A4U G5C A14G G22C C23U A24G U32G | 0.03 |
| G2U G5U C23G U43A | 0 |

| Variant | self-cleavage |
| --- | --- |
| G22C C31A G40U | 0.08 |
| A14U U32A G40C C46A | 0.02 |
| C18U G21U G29U G30C C31A U32C G44C | 0.04 |
| C13U A16C A24C | 0.07 |
| C23A U34A G35U A39U G40A | 0.02 |
| C3U C15U G17C C18A G33A G36A | 0.02 |
| G7U U9G U32A | 0.04 |
| C3G G27C G35U | 0 |
| C13G G21C C23G U28A | 0.09 |
| A26U G27U A41U C45G | 0.13 |
| G7U G19A C42G | 0.01 |
| C13A G27A C37A | 0.05 |
| C3U A25G G29C G44U | 0.05 |
| G7U C8G G21A A39C C42G | 0.22 |
| C31G U34G A39C | 0.04 |
| C3U A12U U28A G36U | 0.16 |
| G29A G30A U32A C37U | 0.01 |
| G19U G21U A24C G29C C45A | 0.04 |
| G2U C8U G27C | 0.04 |
| A4C C23G A25U | 0.01 |
| G17U C18U C23G A24U | 0.04 |
| C8A G21A A26G A39U C42A | 0.31 |
| U32C C37U U38C | 0.08 |

Source: the RNAGym collection of RNA variant scans (doi:10.7554/elife.90254)
